These results are taken from article PMC4336329 (PLoS ONE, 2015).

The whole screen tested about 310,000 compounds, of which about 2,200 (0.71%) showed an effect of 50% or more. Effects have a minus sign here. This is one part of the list.

The target of the test is human ether-à-go-go-related gene (hERG) potassium channel (human, UniProt Q12809). The test can be described thus: primary screen, population patch clamp on CHO cells stably expressing hERG.
Chain of human ether-à-go-go-related gene (hERG) potassium channel (Q12809 whole entry, looked up): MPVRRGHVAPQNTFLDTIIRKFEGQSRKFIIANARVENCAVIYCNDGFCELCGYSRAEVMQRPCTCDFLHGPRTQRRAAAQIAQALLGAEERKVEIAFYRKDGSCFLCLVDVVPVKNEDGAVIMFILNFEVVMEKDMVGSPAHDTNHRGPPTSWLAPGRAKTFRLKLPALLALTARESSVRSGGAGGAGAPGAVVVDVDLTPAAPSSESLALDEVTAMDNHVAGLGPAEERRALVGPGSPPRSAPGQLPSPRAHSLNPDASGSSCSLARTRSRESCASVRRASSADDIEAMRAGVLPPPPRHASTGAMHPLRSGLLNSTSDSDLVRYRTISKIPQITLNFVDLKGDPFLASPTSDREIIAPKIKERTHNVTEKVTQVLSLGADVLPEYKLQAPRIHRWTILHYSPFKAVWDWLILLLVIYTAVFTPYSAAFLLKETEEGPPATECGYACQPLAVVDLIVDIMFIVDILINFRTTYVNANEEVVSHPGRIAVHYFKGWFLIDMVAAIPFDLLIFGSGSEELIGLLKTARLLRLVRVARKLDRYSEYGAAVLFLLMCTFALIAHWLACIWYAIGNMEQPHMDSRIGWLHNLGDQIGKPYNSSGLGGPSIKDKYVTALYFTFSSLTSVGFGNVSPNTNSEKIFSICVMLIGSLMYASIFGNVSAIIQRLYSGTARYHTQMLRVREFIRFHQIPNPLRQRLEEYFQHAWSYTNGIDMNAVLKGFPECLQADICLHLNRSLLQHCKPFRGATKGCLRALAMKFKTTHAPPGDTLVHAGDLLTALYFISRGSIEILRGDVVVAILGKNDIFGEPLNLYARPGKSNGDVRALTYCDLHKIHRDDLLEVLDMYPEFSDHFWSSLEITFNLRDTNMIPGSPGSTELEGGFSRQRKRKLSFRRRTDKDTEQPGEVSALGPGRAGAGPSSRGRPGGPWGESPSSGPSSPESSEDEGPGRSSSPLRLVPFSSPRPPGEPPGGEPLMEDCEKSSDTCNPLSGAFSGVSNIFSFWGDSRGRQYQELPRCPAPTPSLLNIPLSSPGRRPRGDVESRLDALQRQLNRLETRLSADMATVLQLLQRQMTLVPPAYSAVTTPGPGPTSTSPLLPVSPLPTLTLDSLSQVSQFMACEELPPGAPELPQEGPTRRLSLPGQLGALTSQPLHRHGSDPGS
Turning to `CCN(CC)c1ccc2cc(-c3nc(-c4ccc(OC)cc4)cs3)c(=O)oc2c1`, the “hERG current change (%, negative = inhibition) at 1uM” value is listed as 9.74%.
For the compound `COc1ccc(C(O)P(=O)(OC2CCCCC2)c2ccc(N(C)C)cc2)cc1OC` (centres unmarked), the “hERG current change (%, negative = inhibition) at 1uM” value is recorded as 3.71%.
In the case of `Cc1ccc(NC(=O)c2ccc3c(=O)n4c(nc3c2)CCCCC4)nc1`, the “hERG current change (%, negative = inhibition) at 1uM” value is reported as -27.3%.
With `O=C(/C=C\c1ccc2c(c1)OCO2)NC1(C(=O)Nc2ccc3c(c2)OCO3)CCCCC1`, the “hERG current change (%, negative = inhibition) at 1uM” value is given as 4.19%.
As to `C=CCSc1nc(-c2ccccc2)c2cc(Cl)ccc2n1`, the “hERG current change (%, negative = inhibition) at 1uM” value is recorded as 12.8%.
Regarding `CCCc1cc(CNC(=O)C2CCC(=O)N(CCc3cccc(F)c3)C2)on1` (centres unmarked), the “hERG current change (%, negative = inhibition) at 1uM” value stood at 6.37%.
In the case of `O=C(Cc1cccs1)N/N=C/C=C\c1ccccc1[N+](=O)[O-]`, the “hERG current change (%, negative = inhibition) at 1uM” value was -3.17%.
On to `O=C(NC1CCCCC1)C1CC(=O)N(c2ccccc2)C1` (centres unmarked), for which the “hERG current change (%, negative = inhibition) at 1uM” value was 13.6%.
In the case of `Cc1ccc(C(=O)OCC(=O)c2cc(C)n(CC3CCCO3)c2C)cc1` (centres unmarked), the “hERG current change (%, negative = inhibition) at 1uM” value came out at 1.99%.
With `CN(C)/C=N/C(=S)Nc1ccc(Cl)cc1`, the “hERG current change (%, negative = inhibition) at 1uM” value amounted to 8.96%.
To `CC1=C(Sc2nc3ccccc3[nH]2)C(=O)NC(C)(C)C1` belongs 4.3%; to `CCOC(=O)c1c(C)nc2sc3c(=O)n(-c4ccc(C(C)=O)cc4)cnc3c2c1-c1ccc(OC)cc1`, 13.3%; to `CCOC(=O)N1CCN(C(=O)c2cc(-n3cnnc3)ccc2Cl)CC1`, 1.73%.
The result for `CC1(CC(=O)N/N=C/c2cc(Br)c(O)cc2O)OCCO1` reads 15.9%; that for `CCOc1ccc(S(=O)(=O)c2cn(C)c3cc(OC)c(OC)cc3c2=O)cc1`, 8.45%.
The result for `C#Cc1ccc([C@@H]2C=C(C(=O)N3CCN(Cc4ccccc4)CC3)O[C@H](OCCCCO)C2)cc1` reads -4.54%; that for `COc1ccccc1C(=O)C1CCCN(C(=O)C2CCCC2)C1` (centres unmarked), 8.68%; that for `COc1ccc(/C=N/Nc2nc(Nc3ccccc3)nc(N3CCCCC3)n2)cc1OC`, 14.1%.
For `C(=N\N1CCN(C(c2ccccc2)c2ccccc2)CC1)/c1ccc2c(c1)OCO2`, the “hERG current change (%, negative = inhibition) at 1uM” value is 7.82%.
Turning to `Cc1ccccc1NS(=O)(=O)c1ccc2[nH]cc(C(=O)NCCCN3CCOCC3)c(=O)c2c1`, the “hERG current change (%, negative = inhibition) at 1uM” value is 6.69%.
Regarding `CCOC(=O)CSc1nc2cc(C)ccc2cc1C#N`, the “hERG current change (%, negative = inhibition) at 1uM” value was 5.78%.
The result for `COc1ccc(Cl)cc1-c1nc(SCC(=O)NC(C)C(C)C)n[nH]1` (centres unmarked) reads 11.4%.
With `O=C(/C=C/c1ccc(S(=O)(=O)N2CCOCC2)cc1)NC(=S)Nc1ccc(Cl)cc1Cl`, the “hERG current change (%, negative = inhibition) at 1uM” value amounted to 6.34%.
With `CC(=O)Nc1ccc(NC(=O)Nc2ccccc2)cc1`, the “hERG current change (%, negative = inhibition) at 1uM” value came out at 11.4%.
Turning to `CCC(=O)Nc1ccc(C(=O)Nc2cccnc2)cc1`, the “hERG current change (%, negative = inhibition) at 1uM” value is -4.71%.
For the compound `CC(=O)NCCn1c(SCC(=O)NC2CCCCC2)nc2ccccc2c1=O`, the “hERG current change (%, negative = inhibition) at 1uM” value was determined as 12.8%.
For `Cc1n[nH]c(=O)nc1N/N=C/c1cccs1`, the “hERG current change (%, negative = inhibition) at 1uM” value stood at 14.8%.
The result for `Cc1cc(/C(N)=N/OC(=O)c2cccc(Cl)c2)no1` reads 9.17%; that for `CN(C)CCOC(=O)C(c1ccccc1)C1(O)CCCC1.Cl` (centres unmarked), 19%.
As for `Cc1cc(C)c(S(=O)(=O)NCC(c2ccc3c(c2)OCO3)N2CCOCC2)c(C)c1` (centres unmarked), the “hERG current change (%, negative = inhibition) at 1uM” value is on record as 10.1%.
In the case of `CCC(C)NC(=O)c1ccc(C(=O)c2ccccc2)cc1` (centres unmarked), the “hERG current change (%, negative = inhibition) at 1uM” value came to 13.6%.
On to `CCOC(=O)C1=C(C)OC(N)=C(C#N)C1c1ccc(OC)c(C)c1OC` (centres unmarked), for which the “hERG current change (%, negative = inhibition) at 1uM” value is on record as -2.43%.
To `CCC(=O)N1N=C(c2ccc(C)cc2)CC1c1ccco1` (centres unmarked) belongs 11.9%.
With `CC1CCN(C(=O)CNC(=O)c2cccc(OC(F)F)c2)CC1`, the “hERG current change (%, negative = inhibition) at 1uM” value was determined as 1.43%.
As to `C#Cc1ccc([C@H]2C=C(C(=O)O)O[C@@H](OCc3ccc(CO)cc3)C2)cc1`, the “hERG current change (%, negative = inhibition) at 1uM” value is 15.4%.
As for `O=C(CCCN1C(=O)c2ccccc2C1=O)Nc1ccccc1`, the “hERG current change (%, negative = inhibition) at 1uM” value is 11.7%.
The result for `COCc1[nH][nH]c(=O)c1C=Nc1ccc(Cl)cc1` reads 12.2%.
For `O=C1CSC(c2cccc([N+](=O)[O-])c2)N1c1ccc(O)cc1` (centres unmarked), the “hERG current change (%, negative = inhibition) at 1uM” value is listed as 5.24%.
To `CCCCNC(=O)c1onc(CSc2cccc(F)c2)c1C(=O)O` belongs 17.4%; to `CCOc1ccc(NC(=O)Nc2ccccc2C(N)=O)cc1`, 1.08%.
In the case of `COc1cccc2[nH]c3c(N4CCN(Cc5ccc6c(c5)OCO6)CC4)ncnc3c12`, the “hERG current change (%, negative = inhibition) at 1uM” value is 7.87%.
Regarding `Cc1cccc2cc(CN(CCN3CCCC3)C(=O)NC3CCCCC3)c(=O)[nH]c12`, the “hERG current change (%, negative = inhibition) at 1uM” value is recorded as -12.5%.
For the compound `O=C(NCCc1ccccc1)C(=Cc1ccc(C(=O)O)cc1)C(=O)NCCc1ccccc1`, the “hERG current change (%, negative = inhibition) at 1uM” value was -1.66%.
Consider `COc1ccc(C(=O)N2CCN(c3nc4cc(C)ccc4cc3C#N)CC2)c(OC)c1`, for which the “hERG current change (%, negative = inhibition) at 1uM” value is on record as 9.93%.
Take `O=C1C=C(NCc2ccccc2)CCC1`: the “hERG current change (%, negative = inhibition) at 1uM” value was 14.3%.
To `CCOC(=O)C1CCCN(C(=O)c2[nH]c3ccc(OC)cc3c2C)C1` (centres unmarked) belongs 16.8%; to `COc1ccc(C2c3ccc(O)cc3Oc3ncn(Cc4ccco4)c(=N)c32)cc1OC` (centres unmarked), -75.9%; to `Cc1cc(Nc2ccccc2Cl)n2nnnc2n1`, 9.18%.
For the compound `Cc1ccsc1/C=N/NC(=O)CNC(=O)c1cccc([N+](=O)[O-])c1C`, the “hERG current change (%, negative = inhibition) at 1uM” value worked out at 16.9%.
In the case of `COc1cccc(CN2CC=C(c3ccc(F)cc3)CC2)c1`, the “hERG current change (%, negative = inhibition) at 1uM” value came to 8.58%.
With `COCCNc1nc2nonc2nc1N(C)Cc1cccc2cnccc12`, the “hERG current change (%, negative = inhibition) at 1uM” value is given as 3.55%.
As for `O=C(Nc1nccs1)c1ccc[nH]c1=O`, the “hERG current change (%, negative = inhibition) at 1uM” value worked out at 11.7%.
The result for `c1ccc(COc2ccc3nocc3c2)cc1` reads 3.73%; that for `COc1cccc(-c2nn(-c3ccc(C)cc3)cc2C(=O)N2CCN(C3CCS(=O)(=O)C3)CC2)c1` (centres unmarked), -10.8%.
`CC(CNC(=O)COc1ccc2c(c1)OCO2)c1ccccc1` (centres unmarked): the “hERG current change (%, negative = inhibition) at 1uM” value was 14.9%.
Turning to `Cc1ccc(S(=O)(=O)N2CCN(C(=O)CSc3nnnn3C)CC2)c(C)c1`, the “hERG current change (%, negative = inhibition) at 1uM” value is 26.3%.
As for `OCc1c(OCc2cccc(F)c2)ccc2ccccc12`, the “hERG current change (%, negative = inhibition) at 1uM” value is 17%.
With `O=C(NC1CC1)c1sc2cc(F)ccc2c1Cl`, the “hERG current change (%, negative = inhibition) at 1uM” value stood at 13.1%.
The result for `CC1Oc2ccccc2N(Cc2cccnc2)C1=O` (centres unmarked) reads 4.85%.
As to `CC(=O)c1ccccc1OCc1ccc(C(=O)c2ccccc2)cc1`, the “hERG current change (%, negative = inhibition) at 1uM” value was determined as 11.5%.
Turning to `CCOC(=O)c1c(C)[nH]c(C(=O)COC(=O)CNC(=O)c2ccc(Cl)cc2)c1C`, the “hERG current change (%, negative = inhibition) at 1uM” value was determined as 16%.
With `CCN(CC)CCCN(Cc1cc2cc3c(cc2[nH]c1=O)OCO3)C(=S)Nc1ccccc1`, the “hERG current change (%, negative = inhibition) at 1uM” value is recorded as -5.35%.
Turning to `CC1(C)CC(=O)C(/C=N/n2c(C(F)(F)F)nc3ccccc3c2=O)=C(O)C1`, the “hERG current change (%, negative = inhibition) at 1uM” value is reported as 9.24%.
Consider `CCO[C@H]1OC(C(=O)Nc2ccccc2)=C[C@@H](C2CC2)[C@@H]1CCCO`, for which the “hERG current change (%, negative = inhibition) at 1uM” value was found to be 8.36%.
Turning to `O=S(=O)(NC1CC1)c1ccc(F)c(F)c1`, the “hERG current change (%, negative = inhibition) at 1uM” value was 10.1%.
Take `COc1cc(/C=C/C(=O)Nc2nnc(CC(C)(C)C)s2)cc(OC)c1OC`: the “hERG current change (%, negative = inhibition) at 1uM” value is given as 10.2%.
With `O=C1c2ccccc2C(=O)N1CCCC(=O)N1CCc2ccccc21`, the “hERG current change (%, negative = inhibition) at 1uM” value was determined as 6.1%.
With `CN(C)S(=O)(=O)N1CCC(n2nccc2NC(=O)CCCc2ccccc2)CC1`, the “hERG current change (%, negative = inhibition) at 1uM” value turned out to be 11.5%.
Consider `COc1ccc(S(=O)(=O)N2CCC(C)CC2)cc1N(C)S(=O)(=O)c1ccccc1`, for which the “hERG current change (%, negative = inhibition) at 1uM” value came out at 11.4%.
Consider `COC(=O)COc1ccc(/C=C2/SC(=O)N(CC(=O)N3CCCC3)C2=O)cc1Br`, for which the “hERG current change (%, negative = inhibition) at 1uM” value is 12.3%.
Turning to `COc1ccc(C(=O)C2CCCN(C(=O)c3ccccc3C(C)=O)C2)cc1F` (centres unmarked), the “hERG current change (%, negative = inhibition) at 1uM” value is reported as 3.19%.
Turning to `O=C(CN1C(=O)NC2(CCc3ccccc32)C1=O)NCC(F)(F)F` (centres unmarked), the “hERG current change (%, negative = inhibition) at 1uM” value is listed as 9.77%.
For the compound `COC(=O)c1c(C)[nH]c(C(=O)CC#N)c1C`, the “hERG current change (%, negative = inhibition) at 1uM” value was 10.2%.
To `Cc1cc(OC(=O)CCCNC(=O)OC(C)(C)C)c2c3c(c(=O)oc2c1)CCC3` belongs -4.33%; to `Cc1cccc(NC(=O)C2CCN(C(=O)c3ccco3)CC2)c1C`, 15.7%.
Turning to `CN1CCN(C(=O)COc2ccc3ccccc3c2Br)CC1`, the “hERG current change (%, negative = inhibition) at 1uM” value was -2.35%.
Take `COc1ccc(CSc2nnnn2-c2ccc(O)cc2)cc1F`: the “hERG current change (%, negative = inhibition) at 1uM” value is listed as 11.9%.
Take `COc1ccccc1NC(=O)CSc1nnc(CNC(=O)c2ccco2)o1`: the “hERG current change (%, negative = inhibition) at 1uM” value is listed as 12.4%.
Consider `COC(=O)COc1cccc(NC(=O)c2ccc(C)cc2)c1`, for which the “hERG current change (%, negative = inhibition) at 1uM” value came out at 16.9%.
Consider `CCOC(=O)Cc1csc(N/C(=N/S(=O)(=O)c2ccc(F)cc2F)c2ccccc2)n1`, for which the “hERG current change (%, negative = inhibition) at 1uM” value is 9.2%.
Take `CCc1ccc(Cc2cnc(NC(=O)C3=NCCN3)s2)cc1`: the “hERG current change (%, negative = inhibition) at 1uM” value is given as 0.134%.
To `Cc1ccc(-n2c(-c3ccco3)n[nH]c2=S)cc1` belongs 16.7%.
Consider `O=C(CS(=O)(=O)c1ccccc1)Nc1nc2ccccc2s1`, for which the “hERG current change (%, negative = inhibition) at 1uM” value was found to be 9.98%.
Turning to `CCN(c1ccccc1)S(=O)(=O)c1ccc(OC)c(NC(=O)Cc2ccc(F)cc2)c1`, the “hERG current change (%, negative = inhibition) at 1uM” value was -3.37%.
To `Cc1[nH]c(=S)c(C#N)c(-c2ccccc2)c1C(=O)Nc1ccccc1` belongs 15.7%.
As to `CCCn1cnc2cc(NC(=O)c3ccco3)ccc21`, the “hERG current change (%, negative = inhibition) at 1uM” value is -1.03%.
As to `CCN1C(=O)C(=O)N(CC(=O)N(C)CC(=O)Nc2ccccc2Cl)C1=O`, the “hERG current change (%, negative = inhibition) at 1uM” value was determined as 10.4%.
In the case of `Cc1cccc(OCC(=O)NC(=S)Nc2ccccc2N2CCOCC2)c1`, the “hERG current change (%, negative = inhibition) at 1uM” value is on record as 11.6%.
The result for `CN1CCN(NC(=O)Nc2cc(Cl)cc(Cl)c2)CC1` reads 9.87%.
